Source: article PMC4336329 (PLoS ONE, 2015)
The campaign covered roughly 310,000 compounds. About 14,000 (4.5%) showed an effect of 50% or more. Effects have a minus sign here. The list shows a part of the results.

The compounds below were run against human ether-à-go-go-related gene (hERG) potassium channel (human, UniProt Q12809) (assay: primary screen, population patch clamp on CHO cells stably expressing hERG).
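Also: peak tail current of the secondary pulse compared with the same well before compound.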

human ether-à-go-go-related gene (hERG) potassium channel, sequence (Q12809 whole entry, looked up): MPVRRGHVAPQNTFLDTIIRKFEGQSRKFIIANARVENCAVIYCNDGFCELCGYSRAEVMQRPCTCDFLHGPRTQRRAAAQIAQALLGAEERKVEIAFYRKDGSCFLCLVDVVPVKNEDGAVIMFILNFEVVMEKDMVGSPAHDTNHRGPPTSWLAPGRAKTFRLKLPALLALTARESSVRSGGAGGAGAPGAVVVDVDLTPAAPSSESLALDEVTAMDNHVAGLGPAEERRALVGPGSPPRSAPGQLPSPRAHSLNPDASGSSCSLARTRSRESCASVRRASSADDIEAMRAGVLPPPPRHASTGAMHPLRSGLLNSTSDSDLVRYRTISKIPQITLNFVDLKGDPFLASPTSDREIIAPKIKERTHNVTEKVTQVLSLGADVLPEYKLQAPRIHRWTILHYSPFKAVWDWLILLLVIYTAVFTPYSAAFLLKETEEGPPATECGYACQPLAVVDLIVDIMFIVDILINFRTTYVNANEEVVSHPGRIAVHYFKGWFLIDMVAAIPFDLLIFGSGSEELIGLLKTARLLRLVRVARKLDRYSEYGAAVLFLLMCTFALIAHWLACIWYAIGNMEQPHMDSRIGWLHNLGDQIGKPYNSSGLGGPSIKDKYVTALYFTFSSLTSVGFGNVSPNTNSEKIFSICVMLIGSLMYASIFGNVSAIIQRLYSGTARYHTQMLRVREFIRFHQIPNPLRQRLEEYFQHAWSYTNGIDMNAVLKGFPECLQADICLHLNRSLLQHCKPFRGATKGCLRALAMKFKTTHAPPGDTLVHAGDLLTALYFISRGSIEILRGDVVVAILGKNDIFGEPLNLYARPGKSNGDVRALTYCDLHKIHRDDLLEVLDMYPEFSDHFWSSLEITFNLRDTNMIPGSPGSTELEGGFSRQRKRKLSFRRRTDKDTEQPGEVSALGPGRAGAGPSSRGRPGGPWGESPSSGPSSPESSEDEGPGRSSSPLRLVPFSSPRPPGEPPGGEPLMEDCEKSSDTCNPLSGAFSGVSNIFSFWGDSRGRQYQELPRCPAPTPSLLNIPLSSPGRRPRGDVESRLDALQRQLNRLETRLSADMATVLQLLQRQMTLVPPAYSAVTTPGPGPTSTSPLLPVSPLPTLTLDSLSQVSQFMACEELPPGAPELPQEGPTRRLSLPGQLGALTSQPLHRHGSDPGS

Row | Structure (SMILES) | hERG current change (%, negative = inhibition) at 10uM
1 | COc1ccc(OC(C)C(=O)N2CCN(c3ccccn3)CC2)cc1 (stereo not drawn) | -14.5%
2 | COc1cc(C(=O)N2CCN(Cc3ccccc3C(F)(F)F)CC2)cc(OC)c1OC | -5.31%
3 | CCCCCOc1ccc(C(=O)OCC(=O)Nc2cc(C)c(C)cc2[N+](=O)[O-])cc1 | 12.7%
4 | Cc1onc(-c2ccccc2Cl)c1C(=O)Nc1sc2c(c1C(N)=O)CCC(C)C2 (stereo not drawn) | 18.2%
5 | Cc1ccc(C(=O)NCCCc2ccccc2)c(Cl)c1 | -0.45%
6 | C=CCNC(=O)N1CCC(CO)(Cc2ccc(Cl)cc2)CC1 | -10.3%
7 | CCCCc1n[nH]c2c1C(=O)CC(C)(C)C2 | 3.05%
8 | CC(C)CC(=O)NS(=O)(=O)c1ccc(N)cc1 | 10.1%
9 | CC(=O)c1cccc(OCC(=O)c2cc(C)n(-c3cc(C)on3)c2C)c1 | -13.8%
10 | CCOP(=O)(C#CC(C)(C)C)C1(O)CCCCC1 (stereo not drawn) | -7.18%
11 | Cc1cc(NC(=O)CCC(=O)N(c2ccc(F)cc2)C(C(=O)NC2CCCC2)c2ccc(C)o2)no1 (stereo not drawn) | 21.2%
12 | C/C(=N\Nc1nc(C)cc(C)n1)c1ccc(C)o1 | 19.9%
13 | CSCC(C)N1CCC(n2nccc2NC(=O)c2ccccc2C)CC1 (stereo not drawn) | -16.6%
14 | COC(=O)C1CCN(S(=O)(=O)CCNC(=O)c2ccc(F)cc2)CC1 | -17.6%
15 | Cc1ccc(CNC(=O)c2ccc(N(C)C)cc2)cc1 | 1.61%
16 | CC1CCc2c(sc3nc(CN4CCOCC4)nc(N4CCc5ccccc5C4)c23)C1 (stereo not drawn) | -8.23%
17 | COc1ccc(/C=C2\CCCC3C2=NC(=S)NC3c2ccc(OC)cc2)cc1 (stereo not drawn) | -0.449%
18 | COC(=O)c1ccc(/C=N/N2C(C)CCCC2C)cc1 (stereo not drawn) | 35.7%
19 | O=C(Nc1ccc(-n2cccn2)cc1)C1CCN(Cc2ccccn2)CC1 | -16.7%
20 | FC(F)(F)c1cc(Oc2ccccc2Cl)nc(-c2ccccn2)n1 | -1.49%
21 | Cc1cccc(NC(=O)C2CC(O)CN2C(=O)Oc2ccccc2)c1 (stereo not drawn) | 26.3%
22 | O=C(Cc1ccccc1)O/N=C1\CCCc2ccccc21 | 21.6%

Row | Structure (SMILES) | hERG current change (%, negative = inhibition) at 10uM
23 | COc1ccc(CCC(=O)NCCS(=O)(=O)N2CCN(c3ccccc3)CC2)cc1 | -36.6%
24 | COC(=O)c1c(S(N)(=O)=O)c2ccccc2n1C | 3.31%
25 | O=C(CNC(=O)c1ccc(Cl)cc1)c1ccccc1 | -9.6%
26 | CN1CCC(=NNc2ncnc3sc4c(c23)CCCC4)CC1 | -0.962%
27 | CN(CCCOc1ccccc1F)Cc1ccccc1.O=C(O)C(=O)O | -57.3%
28 | CN(C(=O)C1CCCN(c2ncnc3c2nc2n3CCCCC2)C1)c1cccc(Cl)c1 (stereo not drawn) | -45.9%
29 | CCCOC(=O)c1ccc(Oc2c(-c3ccc(OC)cc3O)n[nH]c2C)cc1 | 7.67%
30 | COc1ccc(NC(C)=[N+](C)CCNS(=O)(=O)c2ccc(Cl)cc2)cc1.[I-] | -70.2%
31 | CCOc1ccc(N2C(=O)C(Cl)=C(N3CCOCC3)C2=O)cc1 | 16.3%
32 | Cc1c(NS(=O)(=O)c2ccc(N3CCCCC3)c([N+](=O)[O-])c2)c(=O)n(-c2ccccc2)n1C | 3.37%
33 | CC(C)C12CN3CCN(CC(C3)/C1=N\NC(=O)Nc1ccccc1)C2 | -16.1%
34 | CCN(c1ccccc1)S(=O)(=O)c1ccc(Cl)c(C(=O)NCC2CCCO2)c1 (stereo not drawn) | -10.3%
35 | COc1ccc(-c2nnc(SCC(=O)N/N=C/c3ccccc3C(=O)O)n2-c2ccccc2)cc1 | 30.2%
36 | COc1ccc(C(C(=O)NC2CCCC2)N(C(=O)c2snc(C(N)=O)c2N)c2ccccc2OC)cc1OC (stereo not drawn) | -1%
37 | COC(=O)c1cc(NC2c3ccccc3C(=O)N2CCN2CCOCC2)cc(C(=O)OC)c1 (stereo not drawn) | -12.1%
38 | COC(=O)C1(Cc2ccc(O)cc2)OC(=O)C(O)=C1c1ccc(O)cc1 (stereo not drawn) | 1.14%
39 | C/C=C/Cn1c(Br)nc2c1c(=O)n(C)c(=O)n2C | -4.98%
40 | CC1CCCC(C)N1C(=O)CSc1nnc(NC(=O)Cc2cccs2)s1 (stereo not drawn) | 19.4%
41 | CC1Sc2ccc(S(=O)(=O)NCc3ccccc3)cc2NC1=O (stereo not drawn) | 1.74%
42 | CCn1c(=O)c([N+](=O)[O-])c(Cl)c2ccccc21 | 25.3%
43 | Cc1ccc(Cl)cc1NC(=O)c1ccc(NC(=O)CCC(=O)O)cc1 | 5.63%
44 | CCOC(=O)c1ccc(NC(=O)C(=O)NCCc2ccc(OC)cc2)cc1 | 22.7%

Row | Structure (SMILES) | hERG current change (%, negative = inhibition) at 10uM
45 | CCCc1nnc(NC(=O)c2c(O)c3cccc4c3n(c2=O)CCC4)s1 | -2.48%
46 | C=CCc1cccc(/C=C/c2cc(=O)c3ccccc3[nH]2)c1O | 14.6%
47 | Cc1ccc(C)c(NC(=O)CN(C)C(=O)Cc2ccc(Cl)cc2Cl)c1 | 13.3%
48 | COc1ccc(NC(=O)CSc2nc3ccccc3c(=O)n2Cc2cccs2)c(OC)c1 | -6.23%
49 | O=c1[nH]c2cc3c(cc2cc1CN(CC1CCCO1)S(=O)(=O)c1ccccc1)OCCO3 (stereo not drawn) | 0.0167%
50 | COC(=O)c1sc(NC(=O)c2c(C)noc2C)nc1C | -35.7%
51 | Cc1ccc(NC(=O)Nc2cccc(F)c2)nc1 | 27.2%
52 | CSc1ccccc1NC(=O)c1ccc(Cl)s1 | -17.2%
53 | O=C(O)c1cc(-c2ccccc2Cl)n(-c2ccccc2)n1 | 15.4%
54 | CCCCOC(=O)C1=C(N)N2C(=O)C(C)SC2=C(C(=O)OCC)C1c1ccc(O)c(OC)c1 (stereo not drawn) | 4.52%
55 | CC(=O)c1c(-c2ccccc2)c2cc(Cl)ccc2[nH]c1=O | 9.33%
56 | COc1ccccc1-n1nnnc1S(=O)(=O)Cc1ccc(Cl)cc1 | -7.39%
57 | C=CCN1C(=O)C(CC(=O)Nc2ccc(C)cc2)SC1=Nc1c(C)n(C)n(-c2ccccc2)c1=O (stereo not drawn) | 2.26%
58 | COC(=O)[C@@]12CCCCN1[C@H](c1ccc(-c3cccc(Cl)c3)cc1)[C@H]1C(=O)N(C)C(=O)[C@H]12.O=C(O)C(F)(F)F | 5.31%
59 | CCc1cc2ccc(C)cc2nc1SCC(=O)Nc1cc(OC)c(OC)cc1C(=O)O | 5.32%
60 | CCOC(=O)Nc1ccc(N2CCOCC2)c(S(=O)(=O)N2CCOCC2)c1 | -14.5%
61 | Cc1cc(C)c(NS(=O)(=O)c2ccc3c(c2)NC(=O)CCS3)c(C)c1 | 2.99%
62 | CCCn1c(N)c(N(CCOC)C(=O)/C=C/c2ccc(C(=O)OC)cc2)c(=O)[nH]c1=O | 32%
63 | COc1ccc(CNC(=O)c2ccc(NC(=O)C3=CSCCO3)cc2)cc1 | 20.6%
64 | CCCC(=O)N(Cc1cccnc1)c1nc2c(OC)ccc(Cl)c2s1 | 5.34%
65 | CCn1ncc(CN2CCCC(CNC(=O)c3ccc(F)cc3)C2)c1C (stereo not drawn) | -1.04%
66 | N#C/C(=C\c1cccs1)Sc1nc2ccccc2s1 | 6.22%

Row | Structure (SMILES) | hERG current change (%, negative = inhibition) at 10uM
67 | CCOC(=O)c1c(C)n(C)c2ccc(O)c(CN(CC)CC)c12.Cl | -20%
68 | C=CCn1c(SCC(=O)NC)nnc1C12CC3CC(CC(C3)C1)C2 | 9.16%
69 | NS(=O)(=O)c1cccnc1Nc1c(Cl)cccc1Cl | 10.6%
70 | Cc1nnc(Cn2cnc3c2c(=O)n(C)c(=O)n3C)o1 | 23.4%
71 | CN(CC#CCC(c1ccccc1)c1ccccc1)C(C)(C)C.Cl | -83.3%
72 | Cc1cc(=O)[nH]c(SCC(=O)Nc2ccc(S(=O)(=O)N3CCCCC3)cc2)n1 | -6.37%
73 | c1ccc(-c2nnc(CSc3ccc4c(c3)OCCO4)o2)cc1 | -5.47%
74 | O=C(Nc1ccc(Cl)cc1C(F)(F)F)c1ccccc1Cl | 0.354%
75 | Cc1occc1C(=O)Nc1nnc(C2CCCCC2)s1 | -1.61%
76 | CCOC(=O)N1CCN(c2cc3nccnc3cc2F)CC1 | -12.5%
77 | CSCCC(NC(=O)COc1ccccc1)C(=O)N1CCN(c2ccccc2O)CC1 (stereo not drawn) | -46.8%
78 | Cc1ccc(C(c2nnnn2CS(=O)(=O)c2ccc(C)cc2)N2CCC(C)CC2)cc1 (stereo not drawn) | 8.46%
79 | COc1ccc(/C=N/Nc2cc(N(C)C)nc(N(C)C)n2)cc1 | -28.5%
80 | CC(=O)Oc1ccc2occ(-c3ccccc3)c2c1 | 20%
81 | Cn1c(SCc2cc(=O)[nH]c3ccccc23)nnc1-c1ccc(Br)cc1 | -48.6%
82 | O=C(Nc1nc(-c2ccncc2)cs1)C1COc2ccccc2O1 (stereo not drawn) | -10.7%
83 | Cc1ccc(-n2nc3c(N4CCC(C(=O)NCCc5ccco5)CC4)nnc(C)c3c2C)cc1 | -15.6%
84 | COc1ccc(/C=C(\NC(=O)c2cccs2)C(=O)Nc2ccccc2C)cc1OC | -8.59%
85 | O=C(O)CCCCCn1c(SCC(=O)N2CCCC2)nc2ccsc2c1=O | 16.9%
86 | O=C(NC1CCN(Cc2ccccc2)CC1)C1CCN(S(=O)(=O)c2cccc3cccnc23)CC1 | -9.42%
87 | COc1cc(CC(=O)OCC(=O)N2CCCCC2)cc(OC)c1OC | 16%
